Experimental data taken from the supplement of paper PMC8728848.
The list shows a part of the results.

Legend:
Assay in all cases: glycan array binding signal (z-score within array); higher = stronger binding
Details in all cases: glycan notation: IUPAC condensed, linker removed
[1] = target: Gal(b1-3)[Fuc(a1-4)]GlcNAc(b1-2)Man
Procedure, shortened: (§1)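 Arrays were curated from the Consortium for Functional Glycomics database, 3228 in total, and kept only where the protein sequence was available. Binding is expressed as a within-array Z-score. This score was averaged across arrays of the same protein sequence at different concentrations or buffers and across linkers, and negative values can be read as non-binding.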

[2] = target: Gal(b1-3)[Fuc(a1-4)]GlcNAc(b1-2)Man(a1-3)[Gal(b1-3)[Fuc(a1-4)]GlcNAc(b1-2)Man(a1-6)]Man(b1-4)GlcNAc(b1-4)GlcNAc
Procedure, shortened: as §1

[3] = target: Gal(b1-3)[Fuc(a1-4)]GlcNAc(b1-2)Man(a1-3)[Gal(b1-3)[Fuc(a1-4)]GlcNAc(b1-2)Man(a1-6)]Man(b1-4)GlcNAc(b1-4)[Fuc(a1-6)]GlcNAc
Procedure, shortened: as §1

[4] = target: Gal(b1-3)[Fuc(a1-4)]GlcNAc(b1-3)Gal(b1-3)[Fuc(a1-4)]GlcNAc
Procedure, shortened: as §1

[5] = target: Gal(b1-3)[Fuc(a1-4)]GlcNAc(b1-3)Gal(b1-4)GlcNAc
Procedure, shortened: as §1

[6] = target: Gal(b1-3)[Fuc(a1-4)]GlcNAc(b1-3)Gal(b1-4)[Fuc(a1-3)]GlcNAc
Procedure, shortened: as §1

[7] = target: Gal(b1-3)[Fuc(a1-4)]GlcNAc(b1-6)GalNAc
Procedure, shortened: as §1

[8] = target: Gal(b1-3)[GlcNAc(b1-6)]GalNAc
Procedure, shortened: as §1

[9] = target: Gal(b1-3)[Neu5Ac(a2-6)]GalNAc
Procedure, shortened: as §1

[10] = target: Gal(b1-3)[Neu5Ac(a2-6)]GlcNAc(b1-4)Gal(b1-4)Glc
Procedure, shortened: as §1

[11] = target: Gal(b1-3)[Neu5Ac(a2-6)]GlcNAc(b1-6)Gal(b1-4)Glc
Procedure, shortened: as §1

[12] = target: Gal(b1-3)[Neu5Ac(b2-6)]GalNAc
Procedure, shortened: as §1

Gal(b1-4)Gal = target: Gal(b1-4)Gal
Procedure, shortened: as §1

[13] = target: Gal(b1-4)GalNAc(a1-3)[Fuc(a1-2)]Gal(b1-4)GlcNAc
Procedure, shortened: as §1

[14] = target: Gal(b1-4)GalNAc(b1-3)[Fuc(a1-2)]Gal(b1-4)GlcNAc
Procedure, shortened: as §1

Gal(b1-4)Glc = target: Gal(b1-4)Glc
Procedure, shortened: as §1

Gal(b1-4)Glc6S = target: Gal(b1-4)Glc6S
Procedure, shortened: as §1

Gal(b1-4)GlcNAc = target: Gal(b1-4)GlcNAc
Procedure, shortened: as §1

[15] = target: Gal(b1-4)GlcNAc(a1-6)Gal(b1-4)GlcNAc
Procedure, shortened: as §1

Gal(b1-4)GlcNAc(b1-2)Man = target: Gal(b1-4)GlcNAc(b1-2)Man
Procedure, shortened: as §1

[16] = target: Gal(b1-4)GlcNAc(b1-2)Man(a1-3)Man(b1-4)GlcNAc(b1-4)GlcNAc
Procedure, shortened: as §1

[17] = target: Gal(b1-4)GlcNAc(b1-2)Man(a1-3)[Gal(b1-4)GlcNAc(b1-2)Man(a1-6)]Man(b1-4)GlcNAc(b1-4)GlcNAc
Procedure, shortened: as §1

[18] = target: Gal(b1-4)GlcNAc(b1-2)Man(a1-3)[Gal(b1-4)GlcNAc(b1-2)Man(a1-6)]Man(b1-4)GlcNAc(b1-4)[Fuc(a1-6)]GlcNAc
Procedure, shortened: as §1

[19] = target: Gal(b1-4)GlcNAc(b1-2)Man(a1-3)[Gal(b1-4)GlcNAc(b1-2)Man(a1-6)][Gal(b1-4)GlcNAc(b1-4)]Man(b1-4)GlcNAc(b1-4)[Fuc(a1-6)]GlcNAc
Procedure, shortened: as §1

[20] = target: Gal(b1-4)GlcNAc(b1-2)Man(a1-3)[Gal(b1-4)GlcNAc(b1-2)Man(a1-6)][GlcNAc(b1-4)]Man(b1-4)GlcNAc(b1-4)[Fuc(a1-6)]GlcNAc
Procedure, shortened: as §1

[21] = target: Gal(b1-4)GlcNAc(b1-2)Man(a1-3)[GlcNAc(b1-2)Man(a1-6)]Man(b1-4)GlcNAc(b1-4)GlcNAc
Procedure, shortened: as §1

[22] = target: Gal(b1-4)GlcNAc(b1-2)Man(a1-3)[GlcNAc(b1-4)][Gal(b1-4)GlcNAc(b1-2)Man(a1-6)]Man(b1-4)GlcNAc(b1-4)GlcNAc
Procedure, shortened: as §1

[23] = target: Gal(b1-4)GlcNAc(b1-2)Man(a1-3)[Man(a1-6)]Man(b1-4)GlcNAc(b1-4)GlcNAc
Procedure, shortened: as §1

[24] = target: Gal(b1-4)GlcNAc(b1-2)Man(a1-6)Man(b1-4)GlcNAc(b1-4)GlcNAc
Procedure, shortened: as §1

[25] = target: Gal(b1-4)GlcNAc(b1-2)Man(a1-6)[GlcNAc(b1-2)Man(a1-3)]Man(b1-4)GlcNAc(b1-4)GlcNAc
Procedure, shortened: as §1

[26] = target: Gal(b1-4)GlcNAc(b1-2)Man(a1-6)[Man(a1-3)]Man(b1-4)GlcNAc(b1-4)GlcNAc
Procedure, shortened: as §1

[27] = target: Gal(b1-4)GlcNAc(b1-2)[Gal(b1-4)GlcNAc(b1-4)]Man(a1-3)[Gal(b1-4)GlcNAc(b1-2)Man(a1-6)]Man(b1-4)GlcNAc(b1-4)GlcNAc
Procedure, shortened: as §1

[28] = target: Gal(b1-4)GlcNAc(b1-2)[Gal(b1-4)GlcNAc(b1-4)]Man(a1-3)[Gal(b1-4)GlcNAc(b1-2)[Gal(b1-4)GlcNAc(b1-6)]Man(a1-6)]Man(b1-4)GlcNAc(b1-4)GlcNAc
Procedure, shortened: as §1

[29] = target: Gal(b1-4)GlcNAc(b1-2)[Gal(b1-4)GlcNAc(b1-4)]Man(a1-3)[GlcNAc(b1-4)][Gal(b1-4)GlcNAc(b1-2)Man(a1-6)]Man(b1-4)GlcNAc(b1-4)GlcNAc
Procedure, shortened: as §1

[30] = target: Gal(b1-4)GlcNAc(b1-2)[Gal(b1-4)GlcNAc(b1-4)]Man(a1-3)[GlcNAc(b1-4)][Gal(b1-4)GlcNAc(b1-2)[Gal(b1-4)GlcNAc(b1-6)]Man(a1-6)]Man(b1-4)GlcNAc(b1-4)GlcNAc
Procedure, shortened: as §1

[31] = target: Gal(b1-4)GlcNAc(b1-2)[Gal(b1-4)GlcNAc(b1-6)]Man(a1-6)[Gal(b1-4)GlcNAc(b1-2)Man(a1-3)]Man(b1-4)GlcNAc(b1-4)GlcNAc
Procedure, shortened: as §1

[32] = target: Gal(b1-4)GlcNAc(b1-2)[Gal(b1-4)GlcNAc(b1-6)]Man(a1-6)[Gal(b1-4)GlcNAc(b1-2)Man(a1-3)]Man(b1-4)GlcNAc(b1-4)[Fuc(a1-6)]GlcNAc
Procedure, shortened: as §1

B1: MGL6A (Homo sapiens) (protein)
chain: MTRTYENFQYLENKVKVQGFKNGPLPLQSLLQRLCSGPCHLLLSLGLGLLLLVIICVVGFQNSKFQRDLVTLRTDFSNFTSNTVAEIQALTSQGSSLEETIASLKAEVEGFKQERQAVHSEMLLRVQQLVQDLKKLTCQVATLNNNGEEASTEGTCCPVNWVEHQDSCYWFSHSGMSWAEAEKYCQLKNAHLVVINSREEQNFVQKYLGSAYTWMGLSDPEGAWKWVDGTDYATGFQNWKPGQPDDWQGHGLGGGEDCAHFHPDGRWNDDVCQRPYHWVCEAGLGQTSQESH
glycan array binding signal (z-score) [1]: -0.207
glycan array binding signal (z-score) [2]: 0.09
glycan array binding signal (z-score) [3]: -0.173
glycan array binding signal (z-score) [4]: -0.338
glycan array binding signal (z-score) [5]: 1.02
glycan array binding signal (z-score) [6]: -0.134
glycan array binding signal (z-score) [7]: 1.19
glycan array binding signal (z-score) [8]: -0.28
glycan array binding signal (z-score) [9]: -0.299
glycan array binding signal (z-score) [10]: -0.266
glycan array binding signal (z-score) [11]: -0.249
glycan array binding signal (z-score) [12]: -0.325
glycan array binding signal (z-score) (Gal(b1-4)Gal): -0.317
glycan array binding signal (z-score) [13]: 0.155
glycan array binding signal (z-score) [14]: -0.273
glycan array binding signal (z-score) (Gal(b1-4)Glc): -0.283
glycan array binding signal (z-score) (Gal(b1-4)Glc6S): 0.086
glycan array binding signal (z-score) (Gal(b1-4)GlcNAc): -0.075
glycan array binding signal (z-score) [15]: -0.291
glycan array binding signal (z-score) (Gal(b1-4)GlcNAc(b1-2)Man): -0.225
glycan array binding signal (z-score) [16]: -0.318
glycan array binding signal (z-score) [17]: -0.292
glycan array binding signal (z-score) [18]: -0.306
glycan array binding signal (z-score) [19]: -0.284
glycan array binding signal (z-score) [20]: -0.278
glycan array binding signal (z-score) [21]: -0.261
glycan array binding signal (z-score) [22]: -0.27
glycan array binding signal (z-score) [23]: -0.242
glycan array binding signal (z-score) [24]: -0.316
glycan array binding signal (z-score) [25]: -0.257
glycan array binding signal (z-score) [26]: -0.256
glycan array binding signal (z-score) [27]: -0.313
glycan array binding signal (z-score) [28]: -0.274
glycan array binding signal (z-score) [29]: -0.266
glycan array binding signal (z-score) [30]: -0.304
glycan array binding signal (z-score) [31]: -0.272
glycan array binding signal (z-score) [32]: -0.24
